The whole screen tested about 360,000 compounds, of which about 6,000 (1.7%) were called active. Inconclusive results, whose numbers are uncertain, are shown with a selection of clear calls. The call rests on the fitted dose curve; in most records, active means well fitted cell-killing curve with a large enough effect; inconclusive means small, poorly fitted or top-dose-only effect, or effect the other way; inactive means flat fitted curve, though single readings scatter. Potencies of inconclusive entries are left out as doubtful fits.
test: qHTS for induction of synthetic lethality in tumor cells producing 2HG: qHTS for the HT-1080-NT fibrosarcoma cell line; conditions: HT-1080-NT fibrosarcoma viability, CellTiter-Glo ATP luminescence, 48 h; activity, negative = less viability: at 46.1 µM (top of the series) unless noted;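 further: NT is the 2HG producing partner of a matched IDH1 knockdown line; nearly all actives have a fitted effect of over 55% in size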;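 on activity, negative = less viability: 0% = DMSO-treated cells and -100% = media-only wells without cells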
Summary of the method: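 Compounds were tested in concentration-response format on HT-1080-NT cells for 48 hours at 37 degrees C. Cell viability came from CellTiter-Glo luminescence; curves were classified by r2, response magnitude and activity.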
Potency means the concentration at half of the fitted maximal effect; tags describe the fitted curve by direction and shape.

Row | SMILES | activity, negative = less viability | Potency
1 | COc1ccc(SC[C@H](C)CN2CC[C@H](C)CCC2=O)cc1 | inactive: 4.77% | 
2 | Cc1ccc(Cl)c(OC(=O)C2CSC3(C)CCC(=O)N23)c1 (centres undefined) | inactive: 1.56% | 
3 | COc1ccc(S(=O)(=O)N2c3cc(Cl)ccc3Oc3nc4ccccc4nc32)cc1 |  | inconclusive [cytotoxic, full curve]
4 | C[C@H]1C[C@H]2[C@@H]3CCC4=CC(=O)C=C[C@]4(C)[C@@]3(Cl)[C@@H](O)C[C@]2(C)[C@@]1(O)C(=O)CO | inconclusive: 20.6% | 
5 | O=c1[nH]c(CN2CCCCC2)nc2c1C1(CCCCC1)Cc1ccccc1-2 | inactive: 18.4% | 
6 | CCn1c(CN2CCN(Cc3ccc(C)cc3)C(CCO)C2)nc2ccccc21 (centres undefined) | inactive: -13.7% | 
7 | OC(COC(c1ccc(Cl)cc1)c1ccc(Cl)cc1)CN1CCCC1 (centres undefined) | inactive: -5.59% | 
8 | Cc1ccc(C)c(N2CCN(CCCNC(=O)Cn3cccc3C(=O)c3ccccc3C)CC2)c1 |  | active: 23.1 µM
9 | COc1ccc2nc(NC(=O)c3ccoc3C)sc2c1 |  | active: 10 µM
10 | CCc1ccc(CNc2ccc(O)cc2)cc1 |  | inconclusive [cytotoxic, single point]
11 | CCOC(=O)C1=C(COC(=O)CCOc2ccccc2C)NC(=O)NC1C (centres undefined) | inactive: -12.1% | 
12 | CCC(Oc1ccccc1)C(=O)Nc1ccccc1N1CCCCC1 (centres undefined) | inactive: -22.2% | 
13 | S=c1[nH]nc(CSCc2ccc(Cl)cc2Cl)n1-c1ccccc1 |  | inconclusive [cytotoxic, single point]
14 | CCC(C(=O)OCC(=O)Nc1ccc(C(=O)Nc2ccc(OC)cc2)cc1)c1ccccc1 (centres undefined) |  | active: 18.4 µM
15 | COC(=O)C(F)(F)Sc1c(C)[nH]c2ccccc12 |  | inconclusive [cytotoxic, single point]
16 | CCCn1c(SCC(=O)NC(C)(C)C)nnc1-c1ccco1 | inactive: 9.67% | 
17 | CCN(CC)C(=S)NC(=O)c1cc(OC)c(OC)c(OC)c1 |  | active: 23.1 µM
18 | O=C(Nc1ccccc1)c1ccc[n+](Cc2ccc([N+](=O)[O-])cc2)c1 | inactive: 4.73% | 
19 | O=C(COc1ccc(F)cc1)Nc1nnc(C2CCCCC2)s1 | inconclusive: 32.2% | 
20 | CCCCCCCCN1C(=O)[C@H](CC(=O)NCCCN2CCCC2=O)C[C@@]2(C(=O)OC)CC(C)(C)CC=C12 |  | inconclusive [cytotoxic, single point]
21 | OC(c1cc(F)cc(Cl)c1)c1ncc(-c2ccccc2C(F)(F)F)[nH]1 (centres undefined) |  | inconclusive [cytotoxic, single point]
22 | C/C(=N\NC(=O)c1cccc(N/N=C(\C)c2cc(O)ccc2O)c1)c1cc(O)ccc1O |  | active: 23.1 µM
23 | CCCCN(CC)S(=O)(=O)c1ccc(C(=O)Nc2nnc(COC)o2)cc1 |  | inconclusive [cytotoxic, partial curve]
24 | CC1(C)CC(N2CCCC2)=CC(=[N+]2CCCCC2)C1 |  | inconclusive [cytotoxic, partial curve]
25 | O=[N+]([O-])c1ccc(Oc2ccc(S(=O)(=O)Nc3ccccc3)cc2)cc1 |  | inconclusive [cytotoxic, partial curve]

Row | SMILES | activity, negative = less viability | Potency
26 | Cc1cccc(-c2cc3nc(C)c(C)c(NCCCn4ccnc4)n3n2)c1 |  | inconclusive [cytotoxic, single point]
27 | COCCn1c(C)cc(C2=NNC(=NC3CC3)SC2)c1C |  | inconclusive [cytotoxic, single point]
28 | CCOC(=O)C1(Cc2ccccc2)CCCN(C(=O)c2ccc(-n3ccnc3)cc2)C1 (centres undefined) | inactive: 3.6% | 
29 | CCCc1nc(SCC(=O)NC2CCCC2)c2ccccc2n1 | inactive: -14.3% | 
30 | c1ccc2c(OCCCCN3CCCC3)cccc2c1 | inactive: -12.3% | 
31 | CCCN1CCN(C(c2cc3cc(OCC)ccc3[nH]c2=O)c2nnnn2C2CCCCC2)CC1 (centres undefined) |  | inconclusive [cytotoxic, single point]
32 | Nc1c(C(=O)NCc2ccc3c(c2)OCO3)c2nc3ccccc3nc2n1CCCN1CCOCC1 |  | inconclusive [cytotoxic, single point]
33 | COc1ccc(C2c3c(oc4ccccc4c3=O)C(=O)N2Cc2ccncc2)cc1OC (centres undefined) | inactive: -2.16% | 
34 | Cc1ccc(C2CC(C(F)F)n3ncc(C(=O)Nc4cnn(Cc5ccccc5C)c4)c3N2)cc1 (centres undefined) |  | inconclusive [cytotoxic, single point]
35 | O=C(N/N=C/c1ccoc1)c1ccccc1Br | inactive: 7.14% | 
36 | CC(=O)c1ccc(Nc2nc(C(N)CCc3ccccc3)cs2)cc1 (centres undefined) |  | active: 20.6 µM
37 | CCC1=Nc2cc(C(=O)NCCN3CCOCC3)ccc2Sc2ccccc21 | inactive: -0.0813% | 
38 | Cc1ccc(OCC(=O)NNC(=O)c2ccoc2C)c(Br)c1 | inactive: -4.34% | 
39 | CCOC(=O)CSc1c(-c2ccc(Cl)cc2)[nH]c2ccccc12 |  | inconclusive [cytotoxic, partial curve]
40 | CC(=O)c1cccc(NS(=O)(=O)c2ccc(N/C=C\C(=O)c3ccc(C)cc3)cc2)c1 |  | inconclusive [cytotoxic, partial curve]
41 | Cn1nc(C(C)(C)C)cc1C(=O)Sc1cccc(Br)c1 |  | inconclusive [cytotoxic, single point]
42 | COc1cc(CNc2ncnc3c2ncn3[C@H]2CN(Cc3cccc4ccccc34)C[C@@H](CO)O2)cc(OC)c1OC |  | inconclusive [cytotoxic, single point]
43 | CCCCc1c(-c2cccc(OC)c2)ncn1CCc1ccccc1OC |  | active: 20.6 µM
44 | COc1cc(/C=C2\SC(=S)N(CCCCC(=O)O)C2=O)ccc1OS(=O)(=O)c1ccc(C)cc1 | inactive: -2.28% | 
45 | Clc1ccc(-c2nnc(-c3ccccc3)c(N3CCSCC3)n2)cc1 | inactive: -0.572% | 
46 | COc1cc2nc(N3CCN(C(=O)C4CCCO4)CC3)nc(N)c2cc1OC (centres undefined) |  | inconclusive [rising, single point]
47 | COc1cccc2sc3ccc(C#CC4(N)CCCCC4)cc3c(=O)c12 | inactive: -14.6% | 
48 | Cc1cc(Br)c(OCc2ccc(C(=O)N/N=C/c3ccc[nH]3)cc2)c(Br)c1 |  | active: 0.82 µM
49 | CCOC(=O)N1CCN(c2ccc(C(=O)c3cccc(F)c3)cc2)CC1 |  | inconclusive [cytotoxic, single point]
50 | CCCCn1c(=N)n(CC(O)COc2ccccc2)c2ccccc21 (centres undefined) |  | inconclusive [cytotoxic, single point]

Row | SMILES | activity, negative = less viability | Potency
51 | Cc1ccc(NC(=S)NC(=O)C2CCCCC2)c(Br)c1 |  | inconclusive [cytotoxic, single point]
52 | COc1ccc(-c2noc(CSc3nnc(Cc4ccccc4)n3-c3cccc(C)c3)n2)cc1OC |  | inconclusive [cytotoxic, single point]
53 | Cc1ccc(-c2nn(-c3ccccc3)cc2/C=C2\SC(=S)N(CC(=O)O)C2=O)cc1 | inactive: -7.1% | 
54 | C#CCOCCOCCOCCNc1nc(N2CCN(C(=O)CCCCCCCCCCNC(=O)Cn3cc(CCCCCN)nn3)CC2)nc(N2CCN(C(=O)CCCCCCCCCCNC(=O)[C@H]([C@@H](C)CC)n3cc(CCCCN=C(N)N)nn3)CC2)n1 |  | inconclusive [cytotoxic, single point]
55 | CC/C(C)=N\Nc1nc(-c2cc3cc(OC)ccc3oc2=O)cs1 |  | inconclusive [cytotoxic, single point]
56 | COc1cc(C=O)ccc1OCCCOc1ccc([N+](=O)[O-])cc1 | inactive: -3.9% | 
57 | Cc1ccc(C(C2=C(O)CC(C)(C)CC2=O)C2C(=O)CC(C)(C)CC2=O)s1 (centres undefined) |  | inconclusive [cytotoxic, single point]
58 | O=C(Nc1nc(-c2ccc(-c3ccccc3)cc2)cs1)C1=COCCO1 |  | inconclusive [cytotoxic, partial curve]
59 | COc1cc(NC(=O)c2ccc(-c3cccnc3)c3ccoc23)cc(OC)c1OC | inactive: -13.8% | 
60 | CCN(CC(=O)Nc1cc(Cl)ccc1C)C(=O)CSCc1ccc(C)cc1 |  | inconclusive [cytotoxic, partial curve, poor fit]
61 | COc1ccc(C(=O)c2ccc(CC#N)s2)cc1 |  | inconclusive [cytotoxic, single point]
62 | COc1ccc(C(=O)Nc2nc3c(s2)CCCC3)cc1S(=O)(=O)N1CCCc2ccccc21 | inactive: -4.09% | 
63 | CCCSc1nnc(Sc2nnnn2-c2ccccc2)s1 |  | active: 16.4 µM
64 | COc1ccc(C(=O)Nc2ccc(OCC(F)(F)C(F)F)c(C(F)(F)F)c2)cc1OC |  | inconclusive [cytotoxic, single point]
65 | COCCn1c(C)cc(C(=O)CSc2nc(C)cc(C)c2C#N)c1C | inactive: -13.1% | 
66 | CN1/C(=C\C(=O)Nc2ccc(Cl)cc2)C(C)(C)c2ccccc21 | inactive: -20.6% | 
67 | CC[C@]12c3[nH]c4ccc(Cl)cc4c3CCN1C(=O)[C@@H](CC(=O)NC/C=C(\C)CCC=C(C)C)C[C@@H]2C(=O)N1CCN(C(=O)c2ccco2)CC1 |  | inconclusive [cytotoxic, single point]
68 | O=C(NCCc1ccc(Cl)cc1)C1CCN(S(=O)(=O)c2ccc(Br)s2)CC1 | inactive: -10.7% | 
69 | Cc1cc(C(=O)CN2C(=O)C(=O)N(Cc3ccco3)C2=O)c(C)n1CCc1ccccc1 |  | inconclusive [cytotoxic, single point]
70 | CN(Cc1ccc(-n2cccn2)cc1)Cc1cn(C)nc1-c1ccccc1F | inactive: 3.45% | 
71 | N=c1c(C(=O)NCCc2ccccc2)cc2c(=O)n3ccccc3nc2n1CC1CCCO1 (centres undefined) | inactive: -23.4% | 
72 | O=C(CN1CCCC1)Nc1cc(C(F)(F)F)cc(C(F)(F)F)c1 |  | inconclusive [rising, single point]
73 | CCCNC(=O)CSc1nc(-c2cccs2)cc(C(F)(F)F)n1 | inactive: 1.06% | 
74 | COc1cccc(N2CCN(C(=O)CSc3ccc(F)cc3)CC2)c1 | inactive: 6.93% | 
